# Source: PubChem BioAssay AID504832 (National Center for Advancing Translational Sciences (NCATS), 2011)
# In all, about 310,000 compounds went through this assay and about 18,000 (5.8%) were called active. The inconclusive results got no clear call from the source; some entries with a clear call stand among them for comparison. Calls come from the whole dose curve; as a rule, active = well fitted inhibition curve with a large enough effect; inconclusive = small, poorly fitted or top-dose-only effect, or another doubt; inactive = no such curve, though single readings can be large or run the other way. No potency is given beside an inconclusive call; the fits are too rough.
# Assay: Primary qHTS for delayed death inhibitors of the malarial parasite plastid, 48 hour incubation
# Conditions: P. falciparum luciferase growth in erythrocytes; series mostly up to 28.7 µM; activity change, negative = inhibition: at the top concentration
# Outline: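 Erythrocytes infected with P. falciparum carrying an integrated firefly luciferase reporter (2% hematocrit, 0.1% parasitemia final) were exposed to compounds in RPMI 1640 with 0.5% Albumax at 37 C, 5% CO2. Growth inhibition was scored as reduced luminescence.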
# % is set by controls: 0 for no effect and ±100 for the full control effect; potency is the fitted concentration of half-maximal effect; tags give direction and shape of the fitted curve.
Compound,Potency,"activity change, negative = inhibition"
Cc1cc(C)cc(N(C(=O)c2csnn2)C(C(=O)NC2CCCCC2)c2ccccn2)c1 (centres undefined),"inconclusive [inhibitor, single point]",–
O=[N+]([O-])c1ccccc1/C=C/C=N/n1c(-c2cc(-c3ccccc3)n[nH]2)n[nH]c1=S,–,inactive: -28.4%
Nc1nc(Cl)cc(Sc2ccc(F)cc2)n1,"inconclusive [inhibitor, single point]",–
Cc1ccc(-c2c(C)sc3ncn(CC(=O)N4CCOCC4)c(=O)c23)cc1C,"inconclusive [inhibitor, single point]",–
Cc1ccc(Nc2cc(C)nc(N3CCOCC3)n2)c(C)c1,–,inactive: -6.07%
O=C(Nc1nnc(SCC(=O)N2CCCCC2)s1)c1ccc(F)cc1F,–,inactive: 25.1%
CC1CC(C)CN(C(=O)CN2C(=O)NC(C)(C)C2=O)C1 (centres undefined),"inconclusive [inhibitor, single point]",–
Cc1ccc(NC(=O)c2cc3c(s2)CCC3)cc1S(=O)(=O)N1CCOCC1,"inconclusive [inhibitor, single point]",–
COc1ccc(S(=O)(=O)N2CCCCCC2)cc1C(=O)NCc1ccccc1Cl,active: 5.86 µM,–
CCCCCCCC/C=C\CCCCCCCC(=O)O,inactive,–
CCSc1ncccc1C(=O)N[C@@H](CCSC)C(=O)OC,–,inactive: -0.143%
c1ccc(N/N=C2\CCCc3ccccc32)nc1,"inconclusive [inhibitor, partial curve]",–
CN1/C(=C\C(=O)COC(=O)CNC(=O)c2ccc3ccccc3c2)C(C)(C)c2ccccc21,"inconclusive [inhibitor, single point]",–
Cc1nc([N+](=O)[O-])c(Sc2nc3ccccc3n2C)n1Cc1ccccc1,"inconclusive [inhibitor, single point]",–
Cc1cc(S(=O)(=O)N2CCCc3ccccc32)ccc1-n1cnnn1,–,inactive: 4.34%
CNC(=S)N/N=C(\C)c1ccc(C)c(C)c1,"inconclusive [inhibitor, single point]",–
COc1cc(/C=C(/NC(C)=O)C(=O)O)cc(Cl)c1OCc1ccc(Br)cc1,"inconclusive [inhibitor, single point]",–
CC(OCC(O)CN(C)Cc1nc2ccccc2c(=O)[nH]1)c1ccc(Cl)cc1 (centres undefined),"inconclusive [inhibitor, single point]",–
COc1cc(OC)cc(C(=O)NCC(=O)N2CCN(c3ccc(O)cc3)CC2)c1,–,inactive: -5.11%
CCc1cc(=O)oc2cc3occ(-c4ccc(OC)c(F)c4)c3cc12,"inconclusive [inhibitor, single point]",–
COC(=O)c1ccc(NC(=O)CSc2nnc(CNc3ccc(F)cc3)n2C)cc1,"inconclusive [inhibitor, single point]",–
CC(=O)Nc1ccc(SC[C@H](CC(C)C)N2CCN(CCc3ccccc3)CCC2=O)cc1,active: 9.28 µM,–
CC(C)CCN1CCN(CCCn2cccn2)CC1CCO (centres undefined),–,inactive: 44.7%

Compound,Potency,"activity change, negative = inhibition"
COc1ccc(-c2cc(C3CCN(c4ccc(C(C)=O)cc4[N+](=O)[O-])CC3)[nH]n2)cc1,"inconclusive [inhibitor, partial curve]",–
O=C(c1cc(-c2ccccc2Cl)nc2ccccc12)N1CCN(c2ccccc2O)CC1,active: 9.28 µM,–
CC[n+]1c(C)sc2cc(C)ccc21,"inconclusive [inhibitor, partial curve]",–
O=C1/C(=C\c2ccc(Br)o2)Cc2ccccc21,–,inactive: 48.1%
CCc1ccc(OCC(=O)Nc2ccc(N3CCN(S(C)(=O)=O)CC3)cc2)cc1,"inconclusive [inhibitor, partial curve, poor fit]",–
N#CCC(CNc1ncc(C(F)(F)F)cc1Cl)OC(=O)c1ccc(Cl)cc1 (centres undefined),"inconclusive [inhibitor, partial curve]",–
O=S(=O)(Cc1cc(NCc2ccccc2)nc(-c2ccncc2)n1)c1ccccc1,"inconclusive [inhibitor, partial curve, poor fit]",–
O=C(NC(C(=O)c1ccccc1)n1cnccc1=O)c1ccccc1 (centres undefined),–,inactive: 43.7%
COc1ccc(-c2c/c(=N\c3nc(-c4ccccc4)c(C)s3)c3ccccc3o2)cc1O,"inconclusive [inhibitor, single point]",–
CCN(CC1CCCN(CCc2cccc(OC)c2)C1)C(=O)C=C(C)C (centres undefined),"inconclusive [inhibitor, single point]",–
O=C(N/N=C/c1ccc(OCc2ccccc2)cc1)c1cccs1,"inconclusive [inhibitor, full curve, poor fit]",–
CN1CCN(S(=O)(=O)c2ccc(N3CCN(S(=O)(=O)/C=C/c4ccccc4)CC3)nc2)CC1,"inconclusive [inhibitor, single point]",–
C=CCn1c(SCC(=O)NC2CCCC2)nc2scc(-c3ccco3)c2c1=O,"inconclusive [inhibitor, single point]",–
COc1ccc(CNC(=S)Nc2ccc(-c3ccccc3)cc2)cc1,"inconclusive [inhibitor, single point]",–
O=C(CCCn1nnnc1CN1CCOCC1)N1CCC(c2ccccc2Cl)C1 (centres undefined),"inconclusive [inhibitor, single point]",–
CCn1c(C)nc2cc(C(=O)NNC(=S)Nc3ccc(OC)cc3)ccc21,"inconclusive [inhibitor, partial curve, poor fit]",–
Cc1cc(C)cc(N(CC(=O)NCc2ccco2)C(=O)CCC(=O)Nc2nccs2)c1,–,inactive: -2.49%
COc1ccc(CCNC(=O)C2CCN(Cc3nc(-c4ccccc4C)oc3C)CC2)cc1OC,"inconclusive [inhibitor, partial curve]",–
COc1ccc(CCn2c(=N)c(S(=O)(=O)c3ccc(C)cc3)cc3c(=O)n4ccccc4nc32)cc1,active: 5.22 µM,–
OCC[C@H]1C[C@@H](O)[C@H](O)[C@]2(Cc3ccccc3O2)O1,–,inactive: 0.881%
CN(C)C(=O)COC(=O)c1cccc(CN2C(=O)c3ccccc3C2=O)c1,"inconclusive [inhibitor, partial curve, poor fit]",–
N#CCCSc1ccccc1NC(=O)c1cc(=O)c2ccccc2o1,–,inactive: 0%
Cc1ccc(S(=O)(=O)N(Cc2ccccc2)c2ccccn2)cc1[N+](=O)[O-],"inconclusive [inhibitor, single point]",–

Compound,Potency,"activity change, negative = inhibition"
O=C(O)c1ccc2c(c1)C(=O)N([C@H](Cc1ccc(-c3ccccc3)cc1)C(=O)O)C2=O,"inconclusive [activator, partial curve, poor fit]",–
CN(C)S(=O)(=O)c1cc(NC(=O)CN2CCc3ccccc32)ccc1Cl,"inconclusive [inhibitor, single point]",–
CN(C)CCCN(C(=O)c1ccc(C(=O)c2ccccc2)cc1)c1nc2ccc(F)cc2s1,"inconclusive [inhibitor, partial curve]",–
O=C(NCCc1ccccc1)C1CCC(CNc2nc(=S)[nH]c3ccccc23)CC1 (centres undefined),"inconclusive [inhibitor, full curve, poor fit]",–
O=C(CSCc1ccc(Cl)cc1)N1CCN(Cc2ccc3c(c2)OCO3)CC1,"inconclusive [inhibitor, partial curve, poor fit]",–
Cc1ccc(-c2[nH]nc(N)c2N=Nc2cccc(Cl)c2C)cc1,"inconclusive [inhibitor, partial curve, poor fit]",–
Cc1ccc(S(=O)(=O)c2nnn3c2nc(N2CCCCC2)c2ccccc23)cc1,"inconclusive [inhibitor, full curve, poor fit]",–
CC(Sc1nc2ccccc2c(=O)n1C)C(=O)N(C)C1CCCCC1 (centres undefined),active: 1.85 µM,–
O=C(NC1CC2CCCC(C1)N2Cc1ccco1)NC12CC3CC(CC(C3)C1)C2 (centres undefined),"inconclusive [inhibitor, partial curve, poor fit]",–
CCn1c(COc2ccc(Cl)cc2)nnc1SCc1ccc(C#N)cc1,"inconclusive [inhibitor, single point]",–
O=C(CSc1nnnn1-c1ccccc1)CSc1nnnn1-c1ccccc1,–,inactive: -21.3%
CN(C)C(=O)CSc1nc(-c2ccccc2)nc2c1CCCC2,"inconclusive [inhibitor, partial curve, poor fit]",–
O=C(OCc1nc2ccccc2s1)c1cnccn1,–,inactive: 137%
O=C(Nc1ccnn1C1CCN(CC(O)CO)CC1)C1CCCC1 (centres undefined),–,inactive: -0.445%
Cc1nc2sccn2c1-c1csc(NCc2ccccc2)n1,active: 13.1 µM,–
N#Cc1nc(-c2ccc(OCc3ccccc3)cc2)oc1NCCN1CCOCC1,–,inactive: -10.1%
CCN(CC)C(=O)CSc1nc2c(sc(=S)n2-c2ccccc2)c(=O)n1-c1ccccc1OC,active: 8.28 µM,–
Cc1cc(C)c(S(=O)(=O)N2CCN(C(=O)c3ccc(-n4cncn4)c([N+](=O)[O-])c3)CC2)c(C)c1,"inconclusive [inhibitor, single point]",–
Cc1cc(C(=O)Nc2cccc3cccnc23)ccc1[N+](=O)[O-],–,inactive: 72.1%
Cc1ccc(O)c(-c2cc(-c3ccccc3C)[nH]n2)c1,"inconclusive [inhibitor, single point]",–
Cc1cc(Cl)ccc1NC(=O)CN1C(=O)CSc2ccc(S(=O)(=O)N3CCOCC3)cc21,"inconclusive [inhibitor, partial curve]",–
O=C(O)C1CCC1C(=O)Nc1nc(-c2ccc(Cl)s2)cs1 (centres undefined),–,inactive: 34.2%
COc1cc(-c2ccccc2)[nH]c(=S)n1,–,inactive: 35%
